Values joined by “and” are separate entries in the source; they are usually repeats but may differ in a detail not shown here. Equal values may be shown once. The whole screen tested about 420,000 compounds, of which about 50,000 (12%) were called active. The inconclusive results got no clear call from the source; some entries with a clear call stand among them for comparison. Calls follow the shape of the dose curve; as a rule, active = well fitted inhibition curve with a large enough effect; inconclusive = small, poorly fitted or top-dose-only effect; inactive = flat fitted curve, though single readings scatter. A potency beside an inconclusive call is a rough fit, not a confirmed value.
assay: qHTS for Inhibitors of human tyrosyl-DNA phosphodiesterase 1 (TDP1): qHTS in cells in presence of CPT; conditions: chicken DT40 Tdp1-/-;hTDP1 cells + 20 nM CPT, ATP luminescence, 48 h; activity change, negative = growth inhibition: at 46.2 µM (top of the series); also: nearly all actives have a fitted effect of over 55% in size
How it was run: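 Chicken DT40 Tdp1-/- cells stably complemented with human TDP1 were seeded at 400 cells/well in medium containing 20 nM camptothecin, exposed to pin-transferred compounds, and grown at 37 °C for at least 48 hr. Viability was read as ATP luminescence.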
% is scaled to controls: 0 for no effect and ±100 for the full control effect; potency is read from the fitted curve at half-maximal effect; tags tell the direction and shape of the fitted curve.

Structure (SMILES) | Potency | activity change, negative = growth inhibition
CCOC(=O)C1CCCN(C(=O)c2ccc(SC(F)(F)F)cc2)CC1 (stereo not given) | inconclusive: 11.6 µM [inhibitor, partial curve, poor fit] | –
C=CCNc1ncnc2c1ncn2C1OC(CO)C(O)C1O (stereo not given) | active: 18.4 µM | –
COc1ccc(CCNC(=O)C(=O)NCC(c2ccco2)S(=O)(=O)c2ccccc2)cc1 (stereo not given) | inactive | –
CCC1(c2ccc(F)cc2)NC(=O)N(CC(=O)N2CCN(S(=O)(=O)c3ccc(C)cc3C)CC2)C1=O (stereo not given) | inconclusive: 29.1 µM [inhibitor, single point] | –
Nc1cc(C(=O)OCC(=O)NNC(=O)c2ccccc2)ccc1Cl | inactive | –
O=C(N/N=C/C=C/c1ccccc1[N+](=O)[O-])c1ccncc1 | inconclusive: 29.1 µM [inhibitor, single point] | –
Cc1cccc(N2C(=O)CSC23C(=O)N(CC(=O)NCc2ccccc2Cl)c2ccccc23)c1 (stereo not given) | inconclusive: 23.1 µM [inhibitor, single point] | –
C=CCOc1ccccc1/C=N/NC(=O)Cc1ccc(C)cc1 | inactive | –
COc1cccc(C(=O)Oc2ccc3ccc(=O)oc3c2)c1 | inactive | –
O=Nc1c(-c2ccccc2)cc2ccccn12 | inconclusive: 29.1 µM [inhibitor, single point] | –
COc1cc2ccccc2cc1C(=O)NC1CCC(C)CC1 (stereo not given) | inconclusive: 25.9 µM [inhibitor, single point] | –
CCCCN1CC(C(=O)NC2CCCCC2)CC1=O (stereo not given) | inactive | –
COc1cccc(CN2CCNC(=O)C2CC(=O)NCc2cn3ccccc3n2)c1OC (stereo not given) | – | inconclusive: 1.85% [inhibitor]
CCC(=O)N1CCC1(C)C(=O)NCc1ccccc1SC (stereo not given) | inactive | –
COc1ccc(CN2CC(=O)N(c3ccc(C)cc3C)C2=S)cc1OC | inconclusive: 18.4 µM [inhibitor, single point] | –
O=C(Cn1c(SCCOc2ccc(Cl)cc2)nc2ccccc21)N1CCCCC1 | inconclusive: 29.1 µM [inhibitor, single point] | –
CCOc1ccccc1N(C(=O)CNS(=O)(=O)c1ccccc1)C(CC)C(=O)NCc1ccco1 (stereo not given) | inconclusive: 18.4 µM [inhibitor, partial curve] | –
Cc1ccc(OCC(O)CN2CCN(c3ccc(C)cc3)CC2)cc1 (stereo not given) | inconclusive: 25.9 µM [inhibitor, single point] | –
O=c1[nH]c2ccccc2nc1/C=C/c1ccccc1 | inconclusive: 20.6 µM [inhibitor, partial curve] | –
COc1cccc(OC)c1C(=O)OCC(=O)NC1CCCCCC1 | inconclusive: 23.1 µM [inhibitor, single point] | –
O=C(CN1CCC(Cc2ccccc2)CC1)N1CCc2ccccc2C1 | inconclusive: 29.1 µM [inhibitor, single point] | –
COc1ccc2cc3cc(C(=O)N4CCN(c5ccccc5F)CC4)oc3nc2c1 | inconclusive: 29.1 µM [inhibitor, single point] | –
COc1cc(CC(=O)OCC(=O)N2CC(C)CC(C)C2)cc(OC)c1OC (stereo not given) | inconclusive: 18.4 µM [inhibitor, single point] | –
Cc1ccc2c(COC(=O)C34CC5CC(CC(C5)C3)C4)cc(=O)oc2c1 | inconclusive: 20.6 µM [inhibitor, single point] | –

Structure (SMILES) | Potency | activity change, negative = growth inhibition
O=C(c1ccc(S(=O)(=O)NCc2ccco2)cc1)N1CCN(Cc2ccccc2F)CC1 | inconclusive: 29.1 µM [inhibitor, single point] | –
Cc1cc(C)n(C(=O)Cn2nc([N+](=O)[O-])cc2C)n1 | inactive | –
O=c1[nH]c(=O)n(C2CCCCC2)c(O)c1C1=Nc2ccccc2SC(c2ccc(Cl)cc2)C1 (stereo not given) | inactive | –
O=C(NC12CC3CC(CC(C3)C1)C2)N1CCC(O)(c2ccc3c(c2)OCO3)CC1 | active: 7.31 µM | –
O=C(O)c1ccccc1NC(=O)C1CCN(S(=O)(=O)c2ccc3c(c2)OCCO3)CC1 | inactive | –
Cc1ccc(NC(=O)CSCC(=O)N2CCN(c3cccc(C(F)(F)F)c3)CC2)cc1 | inconclusive: 29.1 µM [inhibitor, single point] | –
CC(C)CNS(=O)(=O)c1ccc(OCC(=O)NCC2CCCO2)c(Cl)c1 (stereo not given) | inactive | –
CCOC(=O)C1(C)Oc2ccccc2C(C(=O)OC)=C1C(=O)OC (stereo not given) | inconclusive: 18.4 µM [inhibitor, single point] | –
C=CCNCc1cccn1-c1sc2c(c1C#N)CCCC2 | active: 20.6 µM | –
Cc1ccc(N(Cc2cc3ccccc3[nH]c2=O)S(=O)(=O)c2ccccc2)cc1 | inconclusive: 29.1 µM [inhibitor, single point] | –
COc1cc(N=C2C(=O)N3c4c(cccc42)C(C)=CC3(C)C)cc(OC)c1 | active: 6.51 µM | –
Cc1ccc(CNC(=O)C2CSC3(C)CCC(=O)N23)cc1 (stereo not given) | inactive | –
CS(=O)(=O)Nc1cccc(C2=NN(C(=O)c3ccccc3)C(c3cccs3)C2)c1 (stereo not given) | active: 20.6 µM | –
CCN(c1ccccc1)S(=O)(=O)c1ccc(Cl)c(NC(=O)Nc2ccc(Cl)cc2C#N)c1 | active: 16.4 µM | –
Cc1ccc2nc(C)cc(C(=O)N/N=C/c3ccncc3)c2c1 | inconclusive: 7.31 µM [inhibitor, full curve, poor fit] | –
Cc1cccc(C(=O)C(O)(c2ccccc2)C2CCCCC2=O)c1 (stereo not given) | inconclusive: 0.461 µM [inhibitor, full curve, poor fit] | –
COc1cccc(CN(C)C(=O)Cn2cc(C)c(=O)[nH]c2=O)c1 | inactive | –
COc1cccc(C2C(C#N)=C(N)OC(C(C)(C)C)=C2C#N)c1 (stereo not given) | inconclusive: 29.1 µM [inhibitor, single point] | –
COc1cc2c(cc1OC)[C@H](C)N(C(=O)NCc1ccccc1)CC2 | active: 23.1 µM | –
CCC(=O)Oc1ccc(C(=O)Nc2ccc([N+](=O)[O-])cc2)cc1 | inconclusive: 20.6 µM [inhibitor, partial curve] | –
O=C(NCCN1CCN(C(=O)C(c2ccccc2)c2ccccc2)CC1)C(=O)Nc1ccccc1 | – | inconclusive: -32.9% [inhibitor]
Brc1ccc(-c2csc(N/N=C/c3ccco3)n2)cc1 | inconclusive: 23.1 µM [inhibitor, single point] | –
CCCCNC(=O)C[C@@H]1C[C@@]2(C(=O)OC)CCCCC=C2N(Cc2cccc3ccccc23)C1=O | inconclusive: 25.9 µM [inhibitor, single point] | –
Cc1c2cnccc2c(C)c2c1c1ccccc1n2CCOC(=O)c1ccccc1 | inconclusive: 10 µM [inhibitor, partial curve, poor fit] | –

Structure (SMILES) | Potency | activity change, negative = growth inhibition
C=CCc1cccc(CNc2cnc3ccccc3c2)c1O | active: 6.51 µM | –
Cc1cc(C)nc(N2CCC(C(=O)Nc3ccc4c(c3)OCCO4)CC2)n1 | inconclusive: 23.1 µM [inhibitor, single point] | –
Cc1cc2c(cc1C)N(Cc1ccccc1)C1=NCCCN12 | active: 13 µM | –
CCC(C)n1c(NC(=O)c2ccccc2)c(C#N)c2nc3ccccc3nc21 (stereo not given) | active: 18.4 µM | –
Cc1cccc(NC(=O)c2ccc3c(c2)CCN3S(=O)(=O)c2ccccc2)c1C | inactive | –
Cn1cc(C2=C(c3cn(CCCSC(=N)N)c4ccccc34)C(=O)NC2=O)c2ccccc21 | active: 0.631 µM | –
CC1CC(C)CN(CCOc2ccc(Br)cc2)C1 (stereo not given) | inactive | –
CCOc1ccc(CCNC(=O)C2CCCN(S(=O)(=O)N3CC(C)CC(C)C3)C2)cc1OCC (stereo not given) | inconclusive: 23.1 µM [inhibitor, single point] | –
COc1ccc(OC)c(NC(=O)CN(C)CC(=O)Nc2ccccc2Cl)c1 | inconclusive: 29.1 µM [inhibitor, single point] | –
CCN(CC(=O)NCc1cccs1)C(=O)c1ccc(N(C)S(=O)(=O)c2ccc(C)cc2)cc1 | inconclusive: 18.4 µM [inhibitor, single point] | –
Cc1cc(NC(=O)CCC(=O)N(CCc2ccccc2)C(C(=O)NC2CCCC2)c2ccco2)no1 (stereo not given) | inconclusive: 23.1 µM [inhibitor, partial curve] | –
COc1cc(C2CC(c3cccnc3)=NN2c2ccc(F)cc2)cc(OC)c1OC (stereo not given) | inconclusive: 29.1 µM [inhibitor, single point] | –
COc1ccc(-c2noc(-c3ccc(N4CCN(c5ccccc5)CC4)c([N+](=O)[O-])c3)n2)cc1 | inconclusive: 18.4 µM [inhibitor, partial curve] | –
COc1ccc(OC)c(Nc2nc(NCCC(C)C)nc(N)c2[N+](=O)[O-])c1 | inconclusive: 29.1 µM [inhibitor, single point] | –
CC(CNC(=O)CN1C(=O)c2cccnc2Oc2ccc(Cl)cc21)c1ccccc1 (stereo not given) | inactive and inconclusive: 29.1 µM [inhibitor, single point] | –
Cc1nc(N2CCC3(CC2)OCCO3)c2nnn(Cc3ccccc3F)c2n1 | inconclusive: 9.2 µM [inhibitor, partial curve] | –
Cc1cccc(C)c1NC(=O)C(CCc1ccccc1)N1CCC(c2ccccc2)CC1 (stereo not given) | active: 16.4 µM | –
COC(=O)c1ccc(NC(=O)N2CCN(Cc3cc(=O)n4nc(-c5ccc(C)cc5)sc4n3)CC2)cc1 | inactive | –
Cc1ccc(/C=C/c2onc(C)c2S(=O)(=O)N2CCC(C(=O)N3CCN(c4ccccc4F)CC3)CC2)cc1 | active: 20.6 µM | –
Cc1cccc(-n2c(C)nc3cc(C(=O)NCCC4=CCCCC4)ccc32)c1 | active: 14.6 µM | –
O=C(O)CN1C(=O)/C(=C\c2cc(Br)ccc2OCc2ccc([N+](=O)[O-])cc2)SC1=S | inactive | –
C/C(CC(=O)NCc1ccc(Cl)cc1)=N\NC(=O)c1ccccc1F | inactive | –

— PubChem BioAssay AID686979 (National Center for Advancing Translational Sciences (NCATS), 2013)
